This note sets out measurements from paper PMC6451091.

Settings in all cases: 20 mM HEPES pH 7.9, 100 mM NaCl, 1 mM DTT, 0.2 mg/mL BSA, 0.02% Triton X-100, 2% milk, 0.4 mg/mL salmon testes DNA; 1 h; temperature not stated; high values mean tight binding; double strand, one strand shown; sequences stand for … in GCCTAGCAC…GTGCTAGGTCTTGATTCGCTTGACGCTGCTG
In one assay the target is PU.1 (IVT) (UniProt P17947). Description: protein-binding microarray (PBM).
For assay [1], the target named is PU.1 (endogenous, THP-1 nuclear extract) (UniProt P17947). Description: nuclear extract protein-binding microarray (nextPBM).
Assay [2] concerns the target T1, FLI1 (endogenous, THP-1 nuclear extract) (UniProt Q01543).
T1 sequence: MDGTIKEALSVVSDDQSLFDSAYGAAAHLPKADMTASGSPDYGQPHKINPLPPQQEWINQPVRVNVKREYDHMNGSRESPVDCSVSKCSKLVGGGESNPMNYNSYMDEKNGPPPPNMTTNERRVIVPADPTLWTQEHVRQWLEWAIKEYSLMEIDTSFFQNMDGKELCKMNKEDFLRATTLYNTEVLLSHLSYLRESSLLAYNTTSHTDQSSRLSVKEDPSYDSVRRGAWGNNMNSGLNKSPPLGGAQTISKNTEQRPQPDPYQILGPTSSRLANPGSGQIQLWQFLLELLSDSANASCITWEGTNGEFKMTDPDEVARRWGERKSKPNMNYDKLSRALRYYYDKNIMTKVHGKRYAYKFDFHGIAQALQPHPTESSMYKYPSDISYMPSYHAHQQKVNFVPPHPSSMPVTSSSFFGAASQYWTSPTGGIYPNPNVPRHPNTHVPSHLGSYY
The description is as above.

Assay [3] concerns PU.1 (endogenous, THP-1 nuclear extract) + IRF8 (endogenous, THP-1 nuclear extract). Described as above.

The other results are listed elsewhere or left out. For part of these data: At the low end of the ranking the order means little. For part of these data: Measured with an extract: partners may take part in the binding.

On to TCCTGGACAAAAGGGATGTG, for which the binding signal in the assay with PU.1 (IVT) was 1.6 z-score; in assay [1] it was 1.07 z-score; in assay [2] it was 1.62 z-score; in assay [3] it was 0.0349 z-score.
CGGGAGGCCGTTTCCAGCTG: the binding signal is -0.836 z-score in the assay with PU.1 (IVT), -0.325 z-score in assay [1], 1.01 z-score in assay [2] and 1.32 z-score in assay [3].
With TTGGAAACTGCGTGAAACTG, the binding signal with PU.1 (IVT) is -0.0571 z-score; in assay [1] it was -0.636 z-score; in assay [2] it was 0.0239 z-score; in assay [3], 2.61 z-score.
With AGTCAGCCTGGTGGCCTTCT, the binding signal with PU.1 (IVT) was -0.729 z-score; in assay [1], -0.442 z-score; in assay [2], -0.48 z-score; in assay [3], 0.515 z-score.
Consider TCCCTTCCATGGACAGGGGA, for which the binding signal with PU.1 (IVT) was -0.68 z-score; in assay [1], -0.471 z-score; in assay [2], 0.172 z-score; in assay [3], -2.01 z-score.
For the sequence GTTGCCATTGTAAAGATAAT, the binding signal with PU.1 (IVT) is -0.244 z-score; in assay [1], -0.284 z-score; in assay [2] it was -0.206 z-score; in assay [3], 0.0666 z-score.
With CCTCTTGCCTACATTTCTCC, the binding signal with PU.1 (IVT) was -0.17 z-score; in assay [1], -0.126 z-score; in assay [2] it was -0.23 z-score; in assay [3] it was 0.0237 z-score.
For CCTCAGAGTGCTATACCTTT, in that order: -0.565 z-score, -0.476 z-score, -0.54 z-score and -1.56 z-score.
In the case of TAAATTCATTTTGATTATTA, the binding signal is 0.188 z-score with PU.1 (IVT), 0.0504 z-score in assay [1], 0.307 z-score in assay [2] and -0.269 z-score in assay [3].
For AGTCCCCTCACACATTTCCC, in that order: -0.438 z-score, -0.176 z-score, 1.72 z-score and -0.0177 z-score.
For TTCAGGGCTGCGTGAAAGTT, in that order: -0.0108 z-score, -0.013 z-score, -0.42 z-score and 1.19 z-score.
For TTTAAAGCTGCATGAAACTG, the binding signal with PU.1 (IVT) is -0.145 z-score; in assay [1], -0.376 z-score; in assay [2] it was -0.404 z-score; in assay [3] it was 2.67 z-score.
As for TTGGACGAGAAACTGGGTTT, the binding signal is 0.225 z-score in the assay with PU.1 (IVT), -0.206 z-score in assay [1], 0.0699 z-score in assay [2] and 1.74 z-score in assay [3].
For CTCAGCTGAGGAAACTCTGA, the binding signal with PU.1 (IVT) is 0.274 z-score; in assay [1], 0.403 z-score; in assay [2] it was 0.611 z-score; in assay [3], -0.7 z-score.
With TGCAACTGCAAACTACAGTA, the binding signal with PU.1 (IVT) is -0.135 z-score; in assay [1], -0.418 z-score; in assay [2], -0.483 z-score; in assay [3], -1.09 z-score.
For AGAGAGTGGTTAGAGCCAGC, in that order: -0.562 z-score, -0.332 z-score, -0.877 z-score and -0.747 z-score.
As to ACATTTGTTCACTATTAACT, the binding signal is 0.282 z-score with PU.1 (IVT), -0.142 z-score in assay [1], -0.381 z-score in assay [2] and 0.835 z-score in assay [3].
For the sequence ACCAACCCCCAGTCTCCCGA, the binding signal with PU.1 (IVT) is -0.739 z-score; in assay [1], 0.162 z-score; in assay [2], -0.862 z-score; in assay [3], 2.73 z-score.
Regarding AGAAGAACTGCGTGAAAGTG, the binding signal with PU.1 (IVT) is -0.752 z-score; in assay [1], -0.185 z-score; in assay [2], -0.329 z-score; in assay [3], 1.88 z-score.
On to CGAAAAGCTGCATGAAACCA, for which the binding signal with PU.1 (IVT) was -0.57 z-score; in assay [1], -0.421 z-score; in assay [2] it was -0.526 z-score; in assay [3] it was 2.34 z-score.
For the sequence ATCTCTGGCAGATTCATTAA, the binding signal was 0.0295 z-score with PU.1 (IVT), -0.323 z-score in assay [1], -0.578 z-score in assay [2] and -0.698 z-score in assay [3].
Turning to AACAGCAACAGGCTTAGGTT, the binding signal with PU.1 (IVT) was -0.278 z-score; in assay [1] it was -0.261 z-score; in assay [2], -0.859 z-score; in assay [3] it was 0.78 z-score.
CTGACCAGGGTGGAATAACC: the binding signal in the assay with PU.1 (IVT) was 0.114 z-score; in assay [1] it was -0.303 z-score; in assay [2], -0.367 z-score; in assay [3], 0.167 z-score.
For TGGCGCTGTGCAGACTTGGC, in that order: -0.704 z-score, -0.29 z-score, -0.966 z-score and 0.386 z-score.
For GGACTTCTCACTGGGCATAA, in that order: 0.448 z-score, 0.682 z-score, -0.198 z-score and -0.258 z-score.
As to TTTCCATTCTTAGTGTCTTG, the binding signal with PU.1 (IVT) was -0.133 z-score; in assay [1] it was -0.316 z-score; in assay [2], 0.0634 z-score; in assay [3], 0.631 z-score.
As for CCAGGAGTCCTTGACCAAGT, the binding signal in the assay with PU.1 (IVT) was -0.303 z-score; in assay [1], -0.371 z-score; in assay [2], -0.692 z-score; in assay [3], 0.719 z-score.
